Source: publication PMC8951588
Results are given in words; binding and its absence hold for the method and conditions named. For some assays here: In cells and extracts the contact can be indirect. Some results given as binding are weak or reduced against the parent protein; the word gives no strength. For some assays here: Sequences can lack the tags named with a protein.

B1: NubG–StREM1.3 (Solanum tuberosum REMORIN group 1 homologue 3, prey in pPR3N) (protein, UniProt P93788 1-198)
chain: MAELEAKKVEIVDPAPPAPGPVEAPKEVVADEKAIVAPALPPPAEEKEKPDDSKALVVVETKAPEPADEKKEGSIDRDAVLARVATEKRVSLIKAWEESEKSKAENKAQKKVSAIGAWENSKKANLEAELKKMEEQLEKKKAEYTEKMKNKIALLHKEAEEKRAMIEAKRGEDLLKAEELAAKYRATGTAPKKILGIF
B2: CytB5-B prey (pPR3N:CytB5-B) (protein, UniProt O48845 1-134)
chain: MGDEAKIFTLSEVSEHNQAHDCWIVINGKVYNVTKFLEDHPGGDDVLLSSTGKDATDDFEDVGHSESAREMMEQYYVGEIDPTTIPKKVKYTPPKQPHYNQDKTSEFIIKLLQFLVPLAILGLAVGIRIYTKSG
B3: nYFP–REM (StREM1.3 fused to the N-terminal half of YFP, pSITE-nEYFP-C1) (protein, UniProt P93788 1-198)
chain: B1 chain

How the values were obtained:
CER1 bait (pBT3N:CER1) = target: T1, CER1 bait (pBT3N:CER1) (UniProt F4HVY0); assay: two-hybrid
T1 sequence: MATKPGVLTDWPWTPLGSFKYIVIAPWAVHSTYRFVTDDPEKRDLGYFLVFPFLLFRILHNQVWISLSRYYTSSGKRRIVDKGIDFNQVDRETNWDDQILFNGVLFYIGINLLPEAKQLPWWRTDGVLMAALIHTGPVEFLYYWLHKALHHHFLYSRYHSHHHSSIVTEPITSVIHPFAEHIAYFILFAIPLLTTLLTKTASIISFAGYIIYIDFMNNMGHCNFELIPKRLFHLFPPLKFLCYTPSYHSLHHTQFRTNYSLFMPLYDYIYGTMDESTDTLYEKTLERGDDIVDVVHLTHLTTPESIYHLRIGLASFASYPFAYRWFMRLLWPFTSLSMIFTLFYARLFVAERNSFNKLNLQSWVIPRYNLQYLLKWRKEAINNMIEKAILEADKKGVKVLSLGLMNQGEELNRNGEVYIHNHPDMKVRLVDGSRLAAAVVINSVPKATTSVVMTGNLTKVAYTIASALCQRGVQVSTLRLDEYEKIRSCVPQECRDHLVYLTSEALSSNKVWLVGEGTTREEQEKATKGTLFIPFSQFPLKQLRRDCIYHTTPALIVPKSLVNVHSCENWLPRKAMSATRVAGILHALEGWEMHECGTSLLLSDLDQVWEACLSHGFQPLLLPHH

[1] = target: T2, Cub–StREM1.3 (bait in pBT3N) (Solanum tuberosum (potato)) (UniProt P93788); assay: two-hybrid
T2 sequence: B1 chain

[2] = target: T3, cYFP–REM (StREM1.3 fused to the C-terminal half of YFP) (Solanum tuberosum (potato)) (UniProt P93788); assay: split reporter
T3 sequence: B1 chain

Row | Binder | binding (CER1 bait (pBT3N:CER1)) | binding [1] | binding [2]
1 | B1 | no binding | binds | 
2 | B2 | binds | no binding | 
3 | B3 |  |  | binds
